# Experimental data published in article PMC12136788.
# This is one part of the list.
# B1: chr10:33190432:33190433:-_ENSG00000150093_ENST00000302278|hu_mus|hu_hu_hu_mus_True|38_58 (ssRNA)
# RNA: GGGAGUUCUACAGUCCGACGAUCUACAUUUUCCAAACCUGCAUGUGAAUAAAACCCUGGCCACAGAGCCCCAAAACUACCUAACUGUGACUAAGAUAAUUGCUACUUGAGCUUGGUGUUGCAAAAUCCGCCUGAGUAGGAUUCCAACAGAGGAUUGAGCAUCA
# B2: chr7:149068622:149068623:-_ENSMUSG00000025139_ENSMUST00000001950|mus_hu|mus_mus_mus_hu_False|28_78 (ssRNA)
# RNA: GGGAGUUCUACAGUCCGACGAUCGUGAGGCCUCUGAGUGUGGCUUGUGGUCUGUCCUGUCUGCAGUUUGUUAAUAUCACGGAACAUACCAUCUAGAACGUUCCAGUCUGCCUGACUACCUUCAUUCCCAAUGGAGAAGAAAUCCAACAGAGGAUUGAGCAUCA
# B3: chr2:153237265:153237266:-_ENSMUSG00000061411_ENSMUST00000109784|mus_mus|mus_mus_mus_hu_False|98_108 (ssRNA)
# RNA: GGGAGUUCUACAGUCCGACGAUCAAAAAAAAGAAAAGAAAAGUGUCCUUGUGCCCAAAGUCUCAGGUGCUUGGAGUGUGGCUAGAAACAGCUCUUUUGGAUCCCACCUCUUUCAAAAACAAAAUGUACCAACUGGUGAGGCAGCAACAGAGGAUUGAGCAUCA
# B4: 117129742_117132029_945_3pUTR_ENSMUSG00000020184_ENSMUST00000020408|mouse|control|control (ssRNA)
# RNA: GGGAGUUCUACAGUCCGACGAUCAUCCUGAUCCAGGCAAUCACCAGAAUGCUCACUUACGCCAUCGUCAAGAUCCUGAUGCGAGGGCGUCUCUGUGGACUCGCUGCUGCUGCUGCUACUGCUGCUGCUGCCGCCGCUGCACAUCAACAGAGGAUUGAGCAUCA
# B5: 18226451_18236780_1457_3pUTR_ENSG00000124795_ENST00000397239|human|control|control (ssRNA)
# RNA: GGGAGUUCUACAGUCCGACGAUCAAGUAGGAUAAUUUUCAUAGACCUUUUUGCAAAUCUGUUUCAUUGUGACUUCUUCCAAGUUAGCACUGGCCAGUAAUUUCUUUAUUGUUUCCUUUAACUCUUCAUCUGUAGGGGGUUUCUCAACAGAGGAUUGAGCAUCA
# B6: chr18:35732044:35732045:+_ENSMUSG00000037236_ENSMUST00000166793|perfect_dup|motif|central (ssRNA)
# RNA: GGGAGUUCUACAGUCCGACGAUCGAUUUGGGGCAAAUUCUCAGGAGUAAUCUUGUCCUCUGGAUAACGACUCAGUUCAUCGGAGUCUCUAGCAGACAGACCAAAGCUGGCCAAAAUGUUACUGGCCUGGUCUGCAUCUCCACGCAACAGAGGAUUGAGCAUCA
# B7: 122839148_122839268_1072_CDS_ENSMUSG00000057895_ENSMUST00000051667|mouse|control|control (ssRNA)
# RNA: GGGAGUUCUACAGUCCGACGAUCUUUCUGAUGGACAGUCAGAUUUGAACUCUGAGUGAAAGCCUUCCCACAUUUUCCACAGACAUAGGGUUUCUGUCCAGUGUGGAUCCUCUGAUGCACAACGAGGUUUGCACUUUGAAUGAACAACAGAGGAUUGAGCAUCA
# B8: chr1:78444685:78444686:-_ENSG00000162613_ENST00000370768|hu_hu|motif|central (ssRNA)
# RNA: GGGAGUUCUACAGUCCGACGAUCACCAGCUGAGCCAGAAGAGGGGGGAGGCACUGUUGAAUAGUCUGCCAUGGUUGCACGGUAAGAGCCGCUGCCGCCUGUUCAGAGACUUCCUCUCAGCUAACAGCUAAGAAAGAAAGAAAACAACAGAGGAUUGAGCAUCA
# B9: chr3:108363203:108363204:-_ENSMUSG00000068732_ENSMUST00000090546|mus_mus|FALSE|FALSE (ssRNA)
# RNA: GGGAGUUCUACAGUCCGACGAUCCCAGGUUUUGAGACGAGGUACUUUCUUGAAGUAGGCACAGGUGCAAACAAAGAGCAAACCAAACACCAGGAUCCCAUCCAAGGAGUACACGUUCGUCAUGGCGGUAGUGCCCGGCUGGGGCAACAGAGGAUUGAGCAUCA
# B10: chr1:74301520:74301521:+_ENSMUSG00000006304_ENSMUST00000006467|perfect_dup|FALSE|FALSE (ssRNA)
# RNA: GGGAGUUCUACAGUCCGACGAUCGAAGACUACUGUGACUCUGUCUUUCUUAGAUUCCACAUACAUGGUCUCAUCAUCCCUAUAAUGGAUAACUGCUCUGUUCUCUCCUUCUUUGCCCUCUUCUUGGAAUUGGAAGUAUUUCUCCAACAGAGGAUUGAGCAUCA
# B11: chr16:89885150:89885151:-_ENSMUSG00000002489_ENSMUST00000163370|mus_mus|FALSE|FALSE (ssRNA)
# RNA: GGGAGUUCUACAGUCCGACGAUCGCUCUGCUCAUCGCUGUGCGCAGAGCCAGCCUCCUCCAGGCUCUCACUGUUGGUGGUACUCAUCUCCAGUUCCCGCCUGAAGUUCUCGUACACCCCCUGGCGCGCAGCAUCCCCUGUUGACAACAGAGGAUUGAGCAUCA
# B12: 103551391_103553149_608_3pUTR_ENSMUSG00000033004_ENSMUST00000161008|mouse|control|control (ssRNA)
# RNA: GGGAGUUCUACAGUCCGACGAUCCAUCAGGAGUUACUGAUAUGUAUGGGGCAGGGACAGAUGUAGAACGCAGAUAUCUCAUUUCGUCCUGGAAUAGGUUGUCGUCUUGAUAGCCCACAAAAUUUUCAUGGUGGUGCCUAGCUACAACAGAGGAUUGAGCAUCA
# B13: chr3:38349274:38349275:-_ENSMUSG00000044864_ENSMUST00000156038|mus_hu|FALSE|FALSE (ssRNA)
# RNA: GGGAGUUCUACAGUCCGACGAUCGAAACAAAUAAGCAAGGCAGGGCAUCUCCAGCACCCAUCCUAUCAUCCUUAUCCUAACUCAAAGUCAUUUAUGUUCUAUUCCAAAACAUAAUUUAUAUAAAAACAUCCCGAGGAAUACUUCAACAGAGGAUUGAGCAUCA
# B14: 81576995_81577115_532_CDS_ENSMUSG00000032705_ENSMUST00000038185|mouse|control|control (ssRNA)
# RNA: GGGAGUUCUACAGUCCGACGAUCGAUUUGAUUCCACUCUGCCUCCUGAGAUACCGUCACCACCUCUGCCUGGAGUAUCCUCUCCUCCCAUGAGGCUCUGGGUGCUCUCAGGGCACCAAAGGGUAGCUGGUCAUCUUCUGGAGGCAACAGAGGAUUGAGCAUCA
# Target: T1, UNK ZnF1-3 (human, UniProt Q9C0B0 31-174)
# T1 sequence: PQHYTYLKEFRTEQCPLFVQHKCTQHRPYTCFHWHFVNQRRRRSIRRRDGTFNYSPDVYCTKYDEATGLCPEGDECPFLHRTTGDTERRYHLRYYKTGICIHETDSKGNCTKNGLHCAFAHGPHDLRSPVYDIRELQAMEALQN
# Test: nsRBNS (natural sequence RNA bind-n-seq); RBNS binding buffer (assumed for nsRBNS): 25 mM Tris pH 7.5, 150 mM KCl, 3 mM MgCl2, 0.01% Triton X-100, 500 ug/ml BSA, 20 U/ml SUPERase-In, 4 C; UNK is unkempt and MSI1 is Musashi-1; names of the RNAs are library labels; protein concentration not given here; high values mean tight binding
row,Binder,binding signal
1,B1,1.02 enrichment R
2,B2,0.705 enrichment R
3,B3,2.43 enrichment R
4,B4,0.607 enrichment R
5,B5,0.566 enrichment R
6,B6,0.432 enrichment R
7,B7,0.676 enrichment R
8,B8,1.41 enrichment R
9,B9,1.15 enrichment R
10,B10,0.656 enrichment R
11,B11,0.626 enrichment R
12,B12,1.2 enrichment R
13,B13,1.58 enrichment R
14,B14,0.316 enrichment R
